# From patent publication US20240307550A1, “MODULATION OF CD46 CELL SURFACE MARKER IN BOTH ANDROGEN RECEPTOR-POSITIVE AND NEGATIVE CANCER CELLS” (The Regents of the University of California, priority 2021, published 2024)
# Legend:
# [1] = tested on: LnCap-C4-2B, LnCap-C4, DU145, PC3-luc, and Hs27 prostate cancer cells; assay: Binding to the surface of prostate cancer cells
# non-tumor BPH1 cells = assay: Binding to the surface of non-tumor cells
# [2] = tested on: RPMI8226, MM.1S, MM.1R, and INA6 multiple myeloma cells; assay: Binding to the surface of multiple myeloma cells
molecule,measurement,setting,value
"YS5FL: human anti-CD46 antibody; VH SEQ ID NO: 1/86, VL SEQ ID NO: 22/87; HC 88, LC 89 (antibody, human anti-CD46 antibody; HC 88, LC 89) heavy: QVQLVQSGGGVVQPGRSLRLACAASGLTVNNYAMHWVRQAPGKGLEWVAVISYDGNNKYYADSVKGRFTISRDNSKNTLYLQMNSLRAEDTAVYYCAKGGGYFDLWGRGTLVTVSS[human IgG1 constant region left out] light: QSVLTQPPSVSGAPGQRVTISCTGSSSNIGAGYDVHWYQQLPGTAPKLLIYGNNNRPSGVPDRFSGSKSGTSASLAITGLQAEDEADYYCSSYTSGTWLFGGGTKLTVLGQPKAAPSVTLFPPSSEELQANKATLVCLISDFYPGAVTVAWKADSSPVKAGVETTTPSKQSNNKYAASSYLSLTPEQWKSHRSYSCQVTHEGSTVEKTVAPTECS",binding to cell surface,[1],bind specifically
same,binding to cell surface,non-tumor BPH1 cells,not to non-tumor BPH1 cells
same,binding to cell surface,[2],binds specifically
